According to paper PMC4336329 (PLoS ONE, 2015):
In all, about 310,000 compounds went through this assay and about 14,000 (4.5%) showed an effect of 50% or more. Effects have a minus sign here. Some of the results follow.

Target: human ether-à-go-go-related gene (hERG) potassium channel (human, UniProt Q12809)
Experiment: primary screen, population patch clamp on CHO cells stably expressing hERG
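Also: peak tail current of the secondary pulse compared with the same well before compound.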

human ether-à-go-go-related gene (hERG) potassium channel, sequence (Q12809 whole entry, looked up): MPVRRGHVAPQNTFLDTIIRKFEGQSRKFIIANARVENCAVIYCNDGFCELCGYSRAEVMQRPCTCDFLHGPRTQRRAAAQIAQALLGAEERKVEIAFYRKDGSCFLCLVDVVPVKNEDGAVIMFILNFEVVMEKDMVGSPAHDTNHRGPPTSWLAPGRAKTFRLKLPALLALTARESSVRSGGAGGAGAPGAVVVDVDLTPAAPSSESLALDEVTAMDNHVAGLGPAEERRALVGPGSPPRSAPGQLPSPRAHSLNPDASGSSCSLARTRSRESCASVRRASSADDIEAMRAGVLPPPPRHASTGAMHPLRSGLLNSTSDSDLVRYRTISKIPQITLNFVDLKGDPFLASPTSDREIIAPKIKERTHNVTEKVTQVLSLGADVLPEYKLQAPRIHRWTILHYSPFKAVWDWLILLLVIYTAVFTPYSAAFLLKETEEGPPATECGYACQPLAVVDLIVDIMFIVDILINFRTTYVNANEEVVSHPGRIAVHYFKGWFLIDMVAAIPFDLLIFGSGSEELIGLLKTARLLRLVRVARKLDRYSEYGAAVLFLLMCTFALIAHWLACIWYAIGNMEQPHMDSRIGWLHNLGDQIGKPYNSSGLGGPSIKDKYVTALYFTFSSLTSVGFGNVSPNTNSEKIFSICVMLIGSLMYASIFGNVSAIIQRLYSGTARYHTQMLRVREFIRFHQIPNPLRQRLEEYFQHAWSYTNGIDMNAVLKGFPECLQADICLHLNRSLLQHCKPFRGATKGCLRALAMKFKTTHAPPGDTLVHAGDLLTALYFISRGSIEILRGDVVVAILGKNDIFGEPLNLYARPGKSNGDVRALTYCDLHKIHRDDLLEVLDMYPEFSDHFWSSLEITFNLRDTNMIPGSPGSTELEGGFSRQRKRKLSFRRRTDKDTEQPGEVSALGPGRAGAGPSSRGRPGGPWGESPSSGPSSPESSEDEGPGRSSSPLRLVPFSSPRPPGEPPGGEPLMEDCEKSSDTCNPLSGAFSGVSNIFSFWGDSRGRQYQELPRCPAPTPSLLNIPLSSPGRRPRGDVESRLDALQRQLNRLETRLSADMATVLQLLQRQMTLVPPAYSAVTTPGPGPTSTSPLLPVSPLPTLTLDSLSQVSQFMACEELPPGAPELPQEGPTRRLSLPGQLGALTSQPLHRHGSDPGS

SMILES | hERG current change (%, negative = inhibition) at 10uM
Cc1ccc(CN2C(=O)CSC2c2cccnc2)cc1 (stereo not shown) | -6.2%
C/C(=N/NC(=O)c1sc(NS(=O)(=O)c2ccc(C)cc2)nc1C)c1sc(N)nc1C | 13.7%
COc1ccc(C(=O)Nc2cc(C)c3c(=O)oc4ccccc4c3n2)cc1 | 7.49%
COc1ccc(OCC(=O)Nc2cc(C)c(Cl)cc2OC)c([N+](=O)[O-])c1 | 10.7%
CC(C)NC(=O)c1ccc2c(c1)N(CC(=O)Nc1ccccc1F)C(=O)C(C)(C)O2 | 15.2%
COc1ccc(/C=C(\C#N)C(=O)OC2CCOC2=O)cc1 (stereo not shown) | -2.05%
O=C(NCC1CCCO1)/C(=C/c1ccc(Cl)cc1)NC(=O)c1ccccc1 (stereo not shown) | 2.01%
C[N+]1(CCCCSc2ccc(O)cc2)CCCCC1.[I-] | -51.7%
COC(=O)/C(=C\c1ccc([N+](=O)[O-])o1)NC(=O)c1ccccc1 | -15%
Cc1ccc(NC(=O)C(=O)NCCN2CCN(Cc3ccc([N+](=O)[O-])cc3)CC2)cc1 | -72.8%
CCOC(=O)COc1nc(C)cc(C(F)(F)F)c1C#N | 4.13%
Cc1ccc(-c2c(NCCc3ccccc3)c(=O)c2=O)cc1 | 23.3%
Cc1ccc2cc3cc(C(=O)NCCCN4CCCC4)oc3nc2c1 | -15.5%
O=C(CNC(=O)C1COc2ccccc2O1)N/N=C/c1ccc(O)cc1O (stereo not shown) | -8.06%
COc1ccc(F)cc1C(=O)C1CCCN(C(=O)c2ocnc2C)C1 (stereo not shown) | -10.1%
Cc1cc(O)c(Oc2cc(C)cc(O)c2O)c(O)c1 | 17%
CCC(=O)Nc1nnc(SCc2ccc(F)cc2)s1 | 1.16%
C[C@H]1C/C=C/[C@H]2[C@H](O)[C@H](C)[C@@](C)(O)[C@H]3[C@H](Cc4ccccc4)NC(=O)[C@]32[C@H](O)/C=C/[C@](C)(O)C1 | 20.4%
Cc1ccc(C(C)C)c(OCCSc2nc3ccccc3n2CC(=O)O)c1 | 11.1%
O=C(Nc1ccccc1)N1CCN(Cc2ccccc2)CC1.O=C(O)C(=O)O | 11.9%
CC1=C(C(=O)NC2CCCc3c2cnn3-c2cc(F)cc(F)c2)OCCO1 (stereo not shown) | -7.64%
Cn1nnnc1SCc1nnc(-c2ccc(Cl)cc2)o1 | -4.53%

SMILES | hERG current change (%, negative = inhibition) at 10uM
Cn1c(=O)cc(SCC(=O)NCc2ccco2)c2ccccc21 | 8.51%
Cc1cc2sc(C(=O)O)c(C)c2s1 | -2.64%
COc1ccc2c(c1)C(=O)N(c1ccccc1OC)C(=O)C2(C)C | -7.4%
CC1CN(C(=O)c2cc(S(=O)(=O)N(C)c3ccc(F)cc3)ccc2Cl)CC(C)O1 (stereo not shown) | -10.5%
Cc1[nH]c2ccccc2c1C(=O)CSc1nc2cc(S(=O)(=O)N3CCCCC3)ccc2o1 | 14.8%
C/C(=N\NC(=O)c1nc2ccccn2c1C)c1ccco1 | -1.34%
CC(OCC(O)CN(C)CCOc1ccccc1)c1ccc(Cl)cc1 (stereo not shown) | -43.5%
NS(=O)(=O)c1ccc(N/C=C\C(=O)c2ccc3ccccc3c2)cc1 | 3.74%
CCCCC(NS(=O)(=O)c1ccc(C)cc1)C(=O)Oc1ccc2c3c(c(=O)oc2c1)CCC3 (stereo not shown) | 5.24%
CN(NS(=O)(=O)c1ccc(Br)cc1)c1nc(C(F)(F)F)nc2ccccc12 | 12.2%
CS(=O)(=O)N(CC(=O)NCCSc1ccccc1)c1ccc2c(c1)OCO2 | -20.9%
CCCN(C(=O)COC(=O)CSc1ccc([N+](=O)[O-])cc1)C1CCS(=O)(=O)C1 (stereo not shown) | -16.9%
CC(=O)Nc1sc(C)c(C)c1CN1CCN(Cc2ccccc2)CC1 | -15.9%
O=C(Nc1cc([N+](=O)[O-])ccc1Cl)c1cccnc1 | 5.85%
Cl.Nc1cccc2c(O)cccc12 | 12.1%
C=CCn1c(SCC(=O)c2cc(C)n(Cc3cccs3)c2C)nnc1-c1ccncc1 | -19.2%
CCCOc1ccc(C2c3c(oc4ccccc4c3=O)C(=O)N2CCN(CC)CC)cc1OC (stereo not shown) | -14.7%
Cc1nn(Cc2ccc(Cl)c(Cl)c2)c(C)c1NC(=O)c1noc2c1CCCCC2 | -3.7%
COc1cccc(CN(C)C(=O)CN2C(=O)NC(c3ccccc3)(c3ccccc3)C2=O)c1 | -36.5%
CC(=O)c1ccc(NC(=O)N2CCCC(C(=O)c3ccc4c(c3)OCO4)C2)cc1 (stereo not shown) | -16.4%
CCCN1CC(=O)N2C(c3cccc(OC)c3OC)c3[nH]c4ccccc4c3C[C@H]2C1=O (stereo partly shown) | -11.6%
